The other results are listed elsewhere or left out. Interaction screen of human proteins with wild-type SARS-CoV-2 proteins by split-DHFR complementation in yeast, 1 µg/mL methotrexate. Value = fitness of the pair (three or more lineages) minus that of the viral protein without a human partner, on a scale set by negative (0) and fused positive (1) controls, mean of up to three cultures; higher = more likely to interact. Active = false discovery rate below 0.05 (one-sided t-test) in at least one culture. Nearly all pairs are not hits, and differences among them are mostly noise (correlation between cultures about 0.3); most hits were seen in one culture only. Human sequences are the Swiss-Prot entries looked up by gene name; the clone may be another isoform. NSP2 values were corrected by the authors for a growth advantage. Listed are human proteins with a hit and a random twelfth of the others.
B1: CHP1, Q99653 (protein)
chain: MGSRASTLLRDEELEEIKKETGFSHSQITRLYSRFTSLDKGENGTLSREDFQRIPELAINPLGDRIINAFFPEGEDQVNFRGFMRTLAHFRPIEDNEKSKDVNGPEPLNSRSNKLHFAFRLYDLDKDEKISRDELLQVLRMMVGVNISDEQLGSIADRTIQEADQDGDSAISFTEFVKVLEKVDVEQKMSIRFLH
B2: PRSS22, Q9GZN4 (protein)
chain: MVVSGAPPALGGGCLGTFTSLLLLASTAILNAARIPVPPACGKPQQLNRVVGGEDSTDSEWPWIVSIQKNGTHHCAGSLLTSRWVITAAHCFKDNLNKPYLFSVLLGAWQLGNPGSRSQKVGVAWVEPHPVYSWKEGACADIALVRLERSIQFSERVLPICLPDASIHLPPNTHCWISGWGSIQDGVPLPHPQTLQKLKVPIIDSEVCSHLYWRGAGQGPITEDMLCAGYLEGERDACLGDSGGPLMCQVDGAWLLAGIISWGEGCAERNRPGVYISLSAHRSWVEKIVQGVQLRGRAQGGGALRAPSQGSGAAARS
B3: OAZ3, Q9UMX2 (protein)
chain: MPCKRCRPSVYSLSYIKRGKTRNYLYPIWSPYAYYLYCYKYRITLREKMLPRCYKSITYKEEEDLTLQPRSCLQCSESLVGLQEGKSTEQGNHDQLKELYSAGNLTVLATDPLLHQDPVQLDFHFRLTSQTSAHWHGLLCDRRLFLDIPYQALDQGNRESLTATLEYVEEKTNVDSVFVNFQNDRNDRGALLRAFSYMGFEVVRPDHPALPPLDNVIFMVYPLERDVGHLPSEPP

Biological target: SARS-CoV-2 E
Experiment: yeast fitness gain over the viral ORF with no human partner (scaled fitness); higher = more likely to interact
Experimental: (§1)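 Split mouse DHFR complementation in pooled diploid yeast: human ORFeome clones carry one fragment and viral ORFs the other; barcoded lineages compete in 1 µg/mL methotrexate and fitness is read by barcode sequencing in up to three cultures.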

Binder | yeast fitness gain
B1 | inactive: 0.0298
B2 | inactive: 0.0243
B3 | inactive: 0.0406

Biological target: SARS-CoV-2 M
Experiment: as above
Experimental: as §1

Binder | yeast fitness gain
B1 | inactive: -0.0139
B2 | inactive: 0.0337
B3 | inactive: 0.0838

Biological target: SARS-CoV-2 NSP1
Experiment: as above
Experimental: as §1

Binder | yeast fitness gain
B1 | inactive: 0.061
B2 | inactive: 0.0311
B3 | inactive: -0.00282

Biological target: SARS-CoV-2 NSP10
Experiment: as above
Experimental: as §1

Binder | yeast fitness gain
B1 | inactive: 0.00353
B2 | inactive: -0.0173
B3 | inactive: 0.0571

Biological target: SARS-CoV-2 NSP12
Experiment: as above
Experimental: as §1

Binder | yeast fitness gain
B1 | inactive: 0.0461
B2 | inactive: 0.11
B3 | inactive: -0.0247

Biological target: SARS-CoV-2 NSP13
Experiment: as above
Experimental: as §1

Binder | yeast fitness gain
B1 | inactive: 0.0636
B2 | inactive: 0.00071
B3 | inactive: 0.0123

Biological target: SARS-CoV-2 NSP14
Experiment: as above
Experimental: as §1

Binder | yeast fitness gain
B1 | inactive: -0.0947
B2 | inactive: -0.0173
B3 | inactive: -0.0496

Biological target: SARS-CoV-2 NSP15
Experiment: as above
Experimental: as §1

Binder | yeast fitness gain
B1 | inactive: -0.0237
B2 | inactive: -0.0408
B3 | inactive: 0.0385

Biological target: SARS-CoV-2 NSP16
Experiment: as above
Experimental: as §1

Binder | yeast fitness gain
B1 | inactive: 0.194
B2 | inactive: 0.07
B3 | inactive: 0.0838

Biological target: SARS-CoV-2 NSP2
Experiment: as above
Experimental: as §1

Binder | yeast fitness gain
B1 | inactive: -0.0154
B2 | inactive: -0.167
B3 | inactive: -0.15

Biological target: SARS-CoV-2 NSP4
Experiment: as above
Experimental: as §1

Binder | yeast fitness gain
B1 | inactive: -0.0318
B2 | inactive: 0.235
B3 | inactive: -0.056

Biological target: SARS-CoV-2 NSP5
Experiment: as above
Experimental: as §1

Binder | yeast fitness gain
B1 | inactive: -0.00632
B2 | inactive: 0.045
B3 | inactive: 0.0425

Biological target: SARS-CoV-2 NSP6
Experiment: as above
Experimental: as §1

Binder | yeast fitness gain
B1 | inactive: 0.08
B2 | inactive: 0.0593
B3 | inactive: 0.00283

Biological target: SARS-CoV-2 NSP7
Experiment: as above
Experimental: as §1

Binder | yeast fitness gain
B1 | inactive: -0.00955
B2 | inactive: -0.0331
B3 | inactive: 0.00779

Biological target: SARS-CoV-2 NSP8
Experiment: as above
Experimental: as §1

Binder | yeast fitness gain
B1 | inactive: -0.0213
B2 | inactive: -0.0431
B3 | inactive: 0.0168

Biological target: SARS-CoV-2 NSP9
Experiment: as above
Experimental: as §1

Binder | yeast fitness gain
B1 | inactive: -0.0731
B2 | inactive: -0.0363
B3 | inactive: -0.0267

Biological target: SARS-CoV-2 ORF10
Experiment: as above
Experimental: as §1

Binder | yeast fitness gain
B1 | inactive: -0.0599
B2 | inactive: 0.0392
B3 | inactive: 0.0129

Biological target: SARS-CoV-2 ORF3A
Experiment: as above
Experimental: as §1

Binder | yeast fitness gain
B1 | inactive: -0.0511
B2 | inactive: 0.0573
B3 | inactive: -0.03

Biological target: SARS-CoV-2 ORF3B
Experiment: as above
Experimental: as §1

Binder | yeast fitness gain
B1 | inactive: 0.0516
B2 | inactive: 0.037
B3 | inactive: -0.0597

Biological target: SARS-CoV-2 ORF6
Experiment: as above
Experimental: as §1

Binder | yeast fitness gain
B1 | inactive: 0.0613
B2 | inactive: 2.1e-05
B3 | inactive: -0.00448

Biological target: SARS-CoV-2 ORF7A
Experiment: as above
Experimental: as §1

Binder | yeast fitness gain
B1 | inactive: 0.0204
B2 | inactive: -0.0348
B3 | inactive: -0.0364

Biological target: SARS-CoV-2 ORF7B
Experiment: as above
Experimental: as §1

Binder | yeast fitness gain
B1 | inactive: -0.00873
B2 | inactive: -0.0906
B3 | inactive: 0.0134

Biological target: SARS-CoV-2 ORF8
Experiment: as above
Experimental: as §1

Binder | yeast fitness gain
B1 | inactive: 0.0594
B2 | inactive: 0.0113
B3 | inactive: -0.0297

Biological target: SARS-CoV-2 ORF9B
Experiment: as above
Experimental: as §1

Binder | yeast fitness gain
B1 | inactive: 0.000164
B2 | inactive: 0.0578
B3 | inactive: 0.0164

Biological target: SARS-CoV-2 ORF9Bwu (the 73-codon ORF)
Experiment: as above
Experimental: as §1

Binder | yeast fitness gain
B1 | inactive: -0.063
B2 | inactive: 0.0422
B3 | inactive: -0.0337

Biological target: SARS-CoV-2 S
Experiment: as above
Experimental: as §1

Binder | yeast fitness gain
B1 | inactive: 0.045
B2 | inactive: -0.0433
B3 | inactive: 0.00996

Biological target: SARS-CoV-2 N
Experiment: as above
Experimental: as §1

Binder | yeast fitness gain
B2 | inactive: -0.00996
B3 | inactive: -0.336

From the supplement of paper PMC11741623
